According to PubChem BioAssay AID1645882 (National Center for Advancing Translational Sciences (NCATS), 2021):
Hit rate of the full screen: of about 16,000 compounds, about 120 (0.75%) were called active. Another 4% or so got no clear call; they are omitted. Calls follow the shape of the dose curve; as a rule, active = well fitted inhibition curve with a large enough effect; inconclusive = small, poorly fitted or top-dose-only effect; inactive = no such curve, though single readings can be large or run the other way. The list shows a part of the results.

Molecular target: Rap guanine nucleotide exchange factor 3 (Homo sapiens) (UniProt O95398)
Test: Validation qHTS for antagonist of cAMP-regulated guanine nucleotide exchange factor 3 (EPAC1); also: nearly all actives have a fitted effect of over 75% in size
Details: EPAC1 Rap1B-BODIPY-GDP exchange, fluorescence; series mostly up to 150 µM; activity change, negative = inhibition: at the top concentration
Summary of the method: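 EPAC1 (100 nM) mixed with 250 nM RAP1B-BODIPY-GDP and 50 uM GDP; compounds in concentration series, 5 min at room temperature. Fluorescence (ex 480/em 540 nm) read every 5 min for 30 min; normalized to ATA control and DMSO.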

Sequence of UniProt O95398 (O95398 whole entry, looked up): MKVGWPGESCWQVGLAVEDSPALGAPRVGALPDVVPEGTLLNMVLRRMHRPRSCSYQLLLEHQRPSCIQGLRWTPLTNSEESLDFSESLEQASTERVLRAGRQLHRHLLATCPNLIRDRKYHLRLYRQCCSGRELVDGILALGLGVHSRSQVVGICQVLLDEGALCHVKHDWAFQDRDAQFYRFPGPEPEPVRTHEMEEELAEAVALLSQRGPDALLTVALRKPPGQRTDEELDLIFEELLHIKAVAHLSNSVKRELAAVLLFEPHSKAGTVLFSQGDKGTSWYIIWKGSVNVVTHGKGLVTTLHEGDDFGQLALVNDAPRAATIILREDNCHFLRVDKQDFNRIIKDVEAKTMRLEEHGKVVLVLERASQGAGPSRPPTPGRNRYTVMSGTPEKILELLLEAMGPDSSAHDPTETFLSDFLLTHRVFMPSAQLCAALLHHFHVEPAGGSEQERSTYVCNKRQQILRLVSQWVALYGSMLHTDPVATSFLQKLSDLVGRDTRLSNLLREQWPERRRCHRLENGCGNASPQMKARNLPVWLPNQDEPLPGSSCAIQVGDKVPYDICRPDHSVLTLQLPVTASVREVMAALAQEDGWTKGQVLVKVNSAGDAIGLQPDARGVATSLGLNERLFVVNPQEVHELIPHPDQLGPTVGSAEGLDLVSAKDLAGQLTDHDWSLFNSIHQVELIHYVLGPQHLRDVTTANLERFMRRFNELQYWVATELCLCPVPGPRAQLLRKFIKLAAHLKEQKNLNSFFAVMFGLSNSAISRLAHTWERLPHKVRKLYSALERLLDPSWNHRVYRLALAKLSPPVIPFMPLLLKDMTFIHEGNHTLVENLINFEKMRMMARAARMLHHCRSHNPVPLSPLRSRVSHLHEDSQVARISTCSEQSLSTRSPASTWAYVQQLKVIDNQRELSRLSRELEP

SMILES | activity change, negative = inhibition
CN(C)Cc1ccccc1-c1cc(N(C)C)ncn1 | inactive: 18%
COc1ccc(C(=O)N2CCC3(CCN(Cc4ccccc4OC)CC3)CC2)cc1 | inactive: 13%
CN(C)c1ccc(/C=C/c2c(Cl)cnc3ccccc23)cc1 | inactive: 14%
COc1ccccc1CN1CCCC2(CCN(C(=O)c3ccncc3)CC2)C1 | inactive: 17.8%
O=C(Cc1nc2ccccc2[nH]1)N1CCC(n2c(C3CCC3)nc3cccnc32)CC1 | inactive: 14.5%
C[C@@H]1CN(Cc2ccc3c(c2)CN(Cc2coc4ccccc4c2=O)CCO3)C[C@H](C)O1 | inactive: 9.15%
CC1=NN(c2ccc([N+](=O)[O-])cc2)C(=O)C1[N+](=O)[O-] (stereo not given) | inactive: 10.8%
COCCNc1cc(-c2ccccc2CN(C)C)ncn1 | inactive: 18.7%
CN1CCN(c2ncc3nc(CCc4ccccc4)c(=O)n(CCc4ccccc4)c3n2)CC1 | inactive: -1.33%
Cc1cc(C)c2nccc(C)c2c1 | inactive: -9.85%
N#Cc1cccc(NC(=O)N2CCC3(CC2)CCN(C(=O)c2ccco2)CC3)c1 | inactive: 1.28%
COCCNc1nc(-c2ccccc2Cl)nc2ccccc12 | inactive: -2.71%
CCCCC/C=C\C/C=C\CCCCCCCC(N)=O | inactive: 12.2% [at 15.3 µM]
c1cncc(CNc2nc(-c3cccnc3)nc3ccccc23)c1 | inactive: 9.08%
OCc1cccnc1 | inactive: 36.2%
NC(N)=NCCC[C@H](N)C(=O)O | inactive
CC(C)Cc1ccc(CC(=O)O)cc1 | inactive: 19.2%
Cc1cccc(CNC(=O)c2cnn(-c3nccc(-c4cccs4)n3)c2C2CC2)n1 | inactive: 9.17%
CC1(C)CC2/C(CO)=C/C=C/[C@](C)(O)CC[C@]21O (stereo not given in full) | inactive: 8.31%
COc1cc(C(=S)N2CCOCC2)cc(OC)c1OC | inactive: 9.42%
O=C(Nc1cccc(N2CCC(NCc3cnn(-c4ccccc4)n3)CC2)c1)c1cccnc1 | inactive: -0.303%
CC(C)(C)Cn1nc(-c2ccc(Cl)cc2)c2c(N)ncnc21 | inactive: 9.15%
COc1ccccc1Oc1c(NS(=O)(=O)c2ccc(C(C)(C)C)cc2)nc(-c2ncccn2)nc1OCCO | inactive: -6.58%
COCC(=O)N1CCC2(CC1)CCN(c1ccccc1)CC2 | inactive: 15.3%
CNC(=O)Oc1ccc2c(c1)[C@@]1(C)CCN(C)[C@@H]1N2C | inactive: 0.731%
Cc1ncc2c(c1CNC(=O)c1ccc3c(c1)OCO3)CCN(C(=O)/C=C/c1ccc(Cl)cc1)C2 | inactive: 0.135%
CN(C)CCC=C1c2ccccc2COc2ccccc21 | inactive: 15.2%
CCC(O)CNC(=O)c1cnn(-c2nccc(-c3cc(C)sc3C)n2)c1C1CC1 (stereo not given) | inactive: 11.3%

SMILES | activity change, negative = inhibition
CN(C)Cc1ccccc1-c1cncnc1Nc1ccncc1 | inactive: 14.3%
COc1ccccc1CN1CCOc2ccc(CN3CCCCC3CO)cc2C1 (stereo not given) | inactive: -5.06%
CC(C)[N+](C)(CCOC(=O)C1c2ccccc2Oc2ccccc21)C(C)C | inactive
O=C(NCc1nnc2n1CCN(Cc1ccc(C(F)(F)F)cc1)CC2)c1ccccn1 | inactive: 16.5%
N[C@@H](CO)C(=O)O | inactive
CN1CCC[C@@H]1Cc1c[nH]c2ccc(CCS(=O)(=O)c3ccccc3)cc12 | inactive: 8.07%
O=S(=O)(c1ccccc1)N1CCC2(CC1)CN(c1ccccn1)C2 | inactive: 0.358%
Cc1cnc(C)c(-c2cc(F)cc3c2OC(CNC(=O)Cc2ccccc2C)C3)n1 (stereo not given) | inactive: 15.4%
CN(C)C(=O)c1ccc(-c2ccc3ncnc(NCCN4CCOCC4)c3c2)cc1 | inactive: 5.74%
COC(=O)N1CCC2(CC1)CCN(c1ccncc1)CC2 | inactive: 1.06%
C=C1C(=O)C23C(O)C1CCC2[C@]12COC3(O)C(O)C1C(C)(C)CC[C@H]2O (stereo not given in full) | inactive: 0.815%
O=C(Oc1ccccc1)N1CCC2(CC1)CCN(c1cccc(-c3ccccc3)c1)CC2 | inactive: 12.4%
O=C(O)Cc1c[nH]c2ccc(O)cc12 | inactive: -2.11% [at 75.8 µM]
COC(=O)c1ccccc1C(=O)c1ccc(OCCN2CCCCC2)cc1 | inactive: 16.5%
O=C(Nc1cccc(F)c1)N1CCCC2(CCN(C(=O)c3csnn3)CC2)C1 | inactive: 16.3%
N[C@H](C(=O)O)c1nn[nH]n1 | inactive: 12.1%
CN1CC(=O)N/C1=N/C(=O)Nc1cccc(Cl)c1 | inactive
CC(C)=CCC/C(C)=C/CC/C(C)=C/CC/C=C(\C)CC/C=C(\C)CCC=C(C)C | inactive
CC(=O)N[C@H](Cc1c[nH]c2ccccc12)C(N)=O | inactive: 9.7%
CC(C)OC(=O)c1cc2c(OCC(O)CNC(C)(C)C)cccc2[nH]1 (stereo not given) | inactive: 7.14%
CN1CCC(=O)N([C@H](CO)Cc2ccccc2)CC1 | inactive: 4.51%
Cn1nnnc1SCC1=C(C(=O)O)N2C(=O)C(NC(=O)C(O)c3ccccc3)C2SC1 (stereo not given) | inactive: 6.01%
CCN(CC)CCOC(=O)c1cc(Cl)c(N)cc1OC | inactive
NC/C=C/C(=O)O | inactive
CN(Cc1ccco1)c1cc(-c2cccc(NS(C)(=O)=O)c2)ncn1 | inactive: -17.3%
CC12CCC3c4ccc(O)cc4CCC3C1CCC2=O (stereo not given) | inactive: 13.2%
O=c1[nH]c(-c2ccccc2O)nc2ccccc12 | inactive: -8.15%
